Measured values taken from PubChem BioAssay AID1458 (National Center for Advancing Translational Sciences (NCATS), 2008).
Out of some 210,000 compounds screened, about 5,900 (2.8%) were called active. Inconclusive means that the source gave no clear call. Such entries were picked first, then a sample of the others. Calls come from the whole dose curve; as a rule, active = well fitted activation curve with a large enough effect; inconclusive = small, poorly fitted or top-dose-only effect; inactive = no such curve, though single readings can be large or run the other way. Potencies of inconclusive entries are doubtful fits and often do not repeat.
Potency is the fitted concentration of half-maximal effect; tags give direction and shape of the fitted curve.

Assay: qHTS Assay for Enhancers of SMN2 Splice Variant Expression; note: nearly all actives have a fitted effect of over 55% in size; for activity change, positive = activation: % of control where 0% means no effect
Details: HEK293 SMN2-luciferase splicing reporter, luminescence, 30-36 h; activity change, positive = activation: at 46.1 µM (top of the series)
How it was run: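 qHTS luciferase splicing reporter: luminescence rises when SMN2 exon 7 is included in transfected HEK293 cells. Compound exposure lasted 30-36 h at 37C, with 4.5 mM final sodium butyrate as control, followed by a ONE-Glo read.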
For COc1ccccc1-c1nn2c(-c3ccccc3Cl)nnc2s1, the Potency was “inactive”. In the case of N#Cc1cc2ccc(N3CCOCC3)cc2cc1C#N, the Potency is reported as inconclusive: 2.24 µM [activator, full curve, poor fit]. For COc1ccc(/C=C/c2cc(OC)cc(=O)o2)cc1, the Potency was inconclusive: 14.1 µM [activator, full curve, poor fit]. For O=C(/C=C/c1ccccc1)OCc1cncs1, the Potency was “inactive”. For COc1ccc(C2=C/C(=C/c3cccnc3)C(=O)O2)cc1OC, the Potency was inconclusive: 3.16 µM [activator, partial curve]. For Cc1ccc(N/C(N)=N/c2nc3c(c(=O)[nH]2)CCCC3)c(C)c1, the Potency was inconclusive: 0.501 µM [activator, full curve, poor fit]. In the case of CCN(CC)S(=O)(=O)c1ccc(NC(=O)COc2nc3ccccc3nc2N2CCOCC2)cc1, the Potency is reported as inconclusive: 2.24 µM [activator, single point]. For O=C(c1cc(-c2ccc(Cl)cc2Cl)on1)N1CCOCC1, the Potency was active: 1.26 µM. For Clc1ccc(N/N=C/c2cccnc2)cc1, the Potency was inconclusive: 35.5 µM [activator, single point]. With COc1cccc(-c2coc3ccc(Br)cc3c2=O)c1 the Potency was inconclusive: 35.5 µM [activator, single point]. In the case of Cc1ccc(-c2ccc(C(=O)O)c(C)n2)cc1, the Potency is reported as inconclusive: 11.2 µM [activator, partial curve, poor fit]. With Cc1cc2cc(C)c(SCC(=O)NCc3ccco3)nc2cc1C the Potency was inconclusive: 31.6 µM [activator, single point]. In the case of O=[N+]([O-])c1ccccc1-c1ccc(/C=N/n2cnnc2)o1, the Potency is reported as inconclusive: 0.355 µM [activator, partial curve]. With COc1cc(C=O)ccc1Oc1cnccn1 the Potency was “inactive”. With CCOC(=O)c1c(-c2ccccc2)oc2ccc(N(C(C)=O)S(=O)(=O)c3cc(C)ccc3C)cc12 the Potency was “inactive”. With COc1ccc(C(O)c2nc3ccccc3s2)cc1 (stereo not given) the Potency was “inactive”. In the case of Cc1cc(C=O)c(C)n1-c1sc2c(c1C(=O)O)CCCC2, the Potency is reported as “inactive”. In the case of CC1CN(C(=O)COC(=O)c2ccc(N)c([N+](=O)[O-])c2)CC(C)O1 (stereo not given), the Potency is reported as inconclusive: 0.178 µM [activator, full curve, poor fit]. In the case of O=C1CN(c2nc(-c3cccnc3)nc3sc4c(c23)CCCC4)CCN1, the Potency is reported as inconclusive: 10 µM [activator, partial curve, poor fit]. In the case of Cn1c(=O)cc(OCC(=O)N2CCC(N3CCCCC3)CC2)c2ccccc21, the Potency is reported as inconclusive: 14.1 µM [activator, single point]. With CC(=O)Nc1ccc(C(=O)CSc2nnc(-c3ccccc3)n2-c2ccccc2)cc1 the Potency was “inactive”. With Cn1cnnc1SCc1ccc(C(=O)N=Nc2c(O)n(Cc3ccc(Cl)cc3)c3ccccc23)cc1 the Potency was “inactive”. In the case of O=C(CNC(=O)c1cccs1)OCC(=O)c1ccc(Br)cc1, the Potency is reported as inconclusive: 6.31 µM [activator, partial curve, poor fit]. In the case of CCCOCC(C)O (stereo not given), the Potency is reported as “inactive”. For CCOC(=O)C1CCCN(C(=O)c2ccc3c(c2)N(Cc2ccccc2)C(=O)c2ccccc2S3(=O)=O)C1 (stereo not given), the Potency was inconclusive: 5.62 µM [activator, single point]. In the case of O=C(CSc1nc2ccccc2c(=O)n1NC(=O)c1ccccc1)c1ccc(Cl)cc1, the Potency is reported as inconclusive: 7.08 µM [activator, full curve]. With Nn1c(SCC(=O)NC(=O)Nc2ccc3c(c2)OCCO3)nnc1C1CC1 the Potency was inconclusive: 35.5 µM [activator, single point]. In the case of COc1cc(C(=O)Nc2nc(-c3cccs3)cs2)cc(OC)c1OC, the Potency is reported as inconclusive: 17.8 µM [activator, partial curve, poor fit]. In the case of CN(N=Nc1ccc([N+](=O)[O-])cc1)c1ccccc1, the Potency is reported as active: 20 µM. With O=c1c2ccccc2nc2ccc(N3CCOCC3)nn12 the Potency was inconclusive: 14.1 µM [activator, partial curve]. In the case of O=C(Oc1ccc(-c2cn3c(n2)SCC3)cc1)c1ccccc1, the Potency is reported as inconclusive: 12.6 µM [activator, partial curve]. With Cc1ccc(-c2noc(CN(C3CCCCC3)S(=O)(=O)c3ccc(C)cc3)n2)cc1 the Potency was “inactive”. In the case of c1ccc(-n2cnc3cc(NCc4ccco4)ccc32)cc1, the Potency is reported as active: 12.6 µM. For Cc1cccc(-c2nnc(-c3ccccc3)o2)c1, the Potency was active: 11.2 µM. With CN(C)S(=O)(=O)Nc1ccc2c(c1)Cc1ccccc1-2 the Potency was inconclusive: 10 µM [activator, partial curve, poor fit]. For CCOc1ccccc1N(C)C(=O)c1nn(-c2ccc(C)cc2)c(=O)c2c1c1ccccc1n2C, the Potency was inconclusive: 3.16 µM [activator, partial curve, poor fit]. For CCOC(=O)N/N=C/c1ccc(N(CC)CC)cc1O, the Potency was inconclusive: 3.16 µM [activator, full curve]. With CCOc1ccccc1-c1nnc(SCc2ccc(Cl)cc2)o1 the Potency was inconclusive: 0.0032 µM [activator, full curve, poor fit]. With CCOc1ccc(-c2nnn(CC(=O)NCc3ccc4c(c3)OCO4)n2)cc1 the Potency was “inactive”. With COc1ccc(C(=O)Nc2ccc3c(c2)OCO3)cc1OC the Potency was inconclusive: 25.1 µM [activator, single point]. With Cc1ccc(-c2cc(C(=O)Nc3ccc4c(c3)OCCO4)c3ccccc3n2)cc1 the Potency was active: 11.2 µM. With CCCCOCCCNC(=O)c1ccc(NC(C)=O)cc1 the Potency was inconclusive: 31.6 µM [activator, single point]. With O=C(NC1CC1)c1ccc(-c2nc3ccccc3s2)s1 the Potency was active: 0.501 µM. In the case of CCC(=O)Oc1ccc(-c2nc(-c3cccnc3)no2)cc1, the Potency is reported as inconclusive: 35.5 µM [activator, single point]. In the case of CC(C)c1onc(C(=O)N(C)Cc2ccccc2)c1[N+](=O)[O-], the Potency is reported as inconclusive: 1.41 µM [activator, full curve]. In the case of Cc1nc(NCc2ccco2)c2c(C)c(C)sc2n1, the Potency is reported as active: 3.16 µM. With COc1cccc(=O)c2c(C)n(-c3cc(C)cc(C)c3)c(C)c12 the Potency was inconclusive: 5.62 µM [activator, single point]. In the case of COc1ccc2nc(Nc3nc(CSc4nnc(C)s4)cc(=O)[nH]3)nc(C)c2c1, the Potency is reported as “inactive”. With Cc1ccn2cc(CSc3ccccc3N)nc2c1 the Potency was inconclusive: 35.5 µM [activator, single point]. With Cc1ccc(C(=O)c2coc3ccc(OCC(=O)O)cc23)cc1 the Potency was inconclusive: 2.51 µM [activator, partial curve, poor fit]. In the case of Cc1ccc(S(=O)(=O)N/N=c2\sc3ccccc3n2C)cc1, the Potency is reported as “inactive”. In the case of CCC(=O)N1CCc2cc(Br)cc(S(=O)(=O)N3CCC(C(=O)NC(C)(C)C)CC3)c21, the Potency is reported as “inactive”. With O=C(c1cnn2c(C(F)F)cc(C3CC3)nc12)N1CCc2ccccc2C1 the Potency was inconclusive: 0.0045 µM [activator, full curve, poor fit]. With COc1ccc(N=C2NC(=O)/C(=C\c3ccco3)S2)cc1 the Potency was inconclusive: 7.94 µM [activator, partial curve]. For CCOC(=O)Nc1ccc2c(c1)N(C(=O)CCN1CCOCC1)c1ccccc1S2, the Potency was inconclusive: 3.55 µM [activator, single point]. With CCN1CCN(c2ccc(N=Cc3ccc(O)cc3O)cc2)CC1 the Potency was “inactive”. For Cn1c(CNc2ccc(Cl)cc2)nc2ccccc21, the Potency was active: 7.08 µM. With CC(=O)Nc1ccc(-c2ccc3nnc(C)n3n2)cc1 the Potency was inconclusive: 35.5 µM [activator, single point]. With O=C(Nc1nc(N2C(=O)c3ccccc3C2=O)n(-c2ccccc2)n1)c1ccccc1 the Potency was inconclusive: 17.8 µM [activator, single point]. In the case of N[C@H](Cc1ccccc1)C(=O)O, the Potency is reported as “inactive”. With CCOC(=O)c1cc2c(ccn2C)n1CC(=O)N1CCC(Cc2ccccc2)CC1 the Potency was “inactive”. With CCNC(=O)C(C)Oc1ccc(Cl)cc1Cl (stereo not given) the Potency was inconclusive: 3.98 µM [activator, partial curve]. For CCC12CN3CC(C)(CN(C1)C3c1c(C)[nH]c3ccccc13)C2=O (stereo not given), the Potency was “inactive”. With O=C(C1CC1)N(CCc1ccccc1)Cc1nc2ccccc2c(=O)[nH]1 the Potency was inconclusive: 25.1 µM [activator, single point]. In the case of COC(=O)c1c(NC(=S)NC(=O)c2ccco2)sc2c1CCCC2, the Potency is reported as “inactive”. With CCOC(=O)c1ccc(Nc2nc(=O)c3cccnc3s2)cc1 the Potency was active: 10 µM. With COc1ccc2nc(C)cc(SCC(=O)N/N=C/c3ccc(O)c(O)c3)c2c1 the Potency was inconclusive: 14.1 µM [activator, partial curve, poor fit]. For c1ccc2c(c1)oc1c(NCC3CCCO3)ncnc12 (stereo not given), the Potency was “inactive”. For Cc1ccccc1C(=O)NNC(=S)NC(=O)c1ccccc1, the Potency was “inactive”. For Cc1ccccc1C(=O)N1CCN(c2ccc(NC(=O)c3cccnc3)cc2)CC1, the Potency was “inactive”. In the case of C=CCNc1ncnc2c1cnn2-c1ccc(OC)cc1, the Potency is reported as inconclusive: 15.8 µM [activator, partial curve, poor fit]. With COCCNC(=O)Nc1ccc2nc(C)sc2c1 the Potency was inconclusive: 14.1 µM [activator, single point]. In the case of COc1ccc(-c2nnc(NC(=O)CSc3ccc(Cl)cc3)s2)cc1OC, the activity change, positive = activation is reported as inconclusive: 33.9% [activator]. For COc1cccc(N/C=C/c2onc(C)c2[N+](=O)[O-])c1, the Potency was inconclusive: 6.31 µM [activator, partial curve, poor fit]. For c1ccc(-c2nnn(C34CC5CC(CC(C5)C3)C4)n2)cc1, the Potency was inconclusive: 0.0282 µM [activator, full curve, poor fit].
